Laboratory results as given in PubChem BioAssay (NCATS).
The shares of active, inactive and inconclusive entries below differ from those in the screen. Potencies of inconclusive entries are left out as doubtful fits. The source made the active and inactive calls. Calls come from the whole dose curve; as a rule, active = well fitted cell-killing curve with a large enough effect; inconclusive = small, poorly fitted or top-dose-only effect, or effect the other way; inactive = no such curve, though single readings can be large or run the other way.

Test: Viability qHTS for spleen associated tyrosine kinase inhibitor (SYKi) drug resistant MV4-11 cells (AID 1963824); note: nearly all actives have a fitted effect of over 35% in size
Conditions: SYKi-resistant MV4-11 viability, CellTiter-Glo, 72 h; series mostly up to 45 µM; viability, % of control: at the top concentration
Method in brief: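 SYK inhibitor-resistant MV4-11 AML cells, 500 per well, added to predispensed compounds and incubated 72 hr at 37 C, 5% CO2. Viability measured by CellTiter-Glo luminescence after 10 min at room temperature.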
Potency is the fitted concentration of half-maximal effect; tags give direction and shape of the fitted curve.

Structure (SMILES)	Potency	viability, % of control
CC(=O)[C@@]1(O)CC[C@H]2[C@@H]3CCC4=CC(=O)CC[C@]4(C)[C@H]3CC[C@@]21C	inconclusive [cytotoxic, partial curve]	
CC#C[C@@H](CC(=O)O)c1ccc(OCc2ccc(CN3CCC4(C=Cc5ccccc54)CC3)s2)cc1	active: 11.6 µM	
COC(=O)[C@H]1[C@H]2C[C@@H]3c4[nH]c5cc(OC)ccc5c4CCN3C[C@H]2C[C@@H](OC(=O)/C=C/c2cc(OC)c(OC)c(OC)c2)[C@@H]1OC	inconclusive [cytotoxic, partial curve, poor fit]	
CCC(C)C(=O)OC1CC(O)C23C4OCC5(C(O)CC2C1(C)C(O)O4)C3C(=O)C(O)C1(C)C(O)(c2ccoc2)CC2OC251 (stereo not given)	active: 0.432 µM	
OC[C@H]1O[C@@H](Oc2cc(O)c3c(c2)O[C@@H](c2ccc(O)cc2)[C@H](O)C3)[C@H](O)[C@@H](O)[C@@H]1O		inactive: 82.8% [at 17.3 µM]
C/C(=C\Cc1c(O)c(Cl)c(C)c(C=O)c1O)CC/C=C(\C)[C@H]1CC(=O)C(C)(C)O1	inconclusive [cytotoxic, partial curve]	
CC(C)=CCCC1(C)C2CCC1(C)C(O)C2 (stereo not given)	inconclusive [cytotoxic, partial curve]	
O=C(O)/C=C/c1ccc(Cn2ccnc2)cc1	inactive	
Nc1nnnn1-c1ccccc1		inactive: 82.8%
NCC[C@H](O)C(=O)N[C@@H]1C[C@H](N)[C@@H](O[C@H]2O[C@H](CN)[C@@H](O)[C@H](O)[C@@H]2O)[C@H](O)[C@@H]1O[C@H]1O[C@H](CO)[C@@H](O)[C@H](N)[C@@H]1O		inactive: 95% [at 0.588 µM]
